# Among all 270,000 compounds or so, about 5,800 (2.1%) were called active. The shares of active, inactive and inconclusive entries below differ from those in the screen. Calls come from the whole dose curve; as a rule, active = well fitted inhibition curve with a large enough effect; inconclusive = small, poorly fitted or top-dose-only effect; inactive = flat fitted curve, though single readings scatter. A potency beside an inconclusive call is a rough fit, not a confirmed value.
# Molecular target: Microtubule-associated protein tau (Homo sapiens) (UniProt P10636)
# Assay: qHTS for Inhibitors of Tau Fibril Formation, Thioflavin T Binding; note: nearly all actives have a fitted effect of over 55% in size
# Settings: recombinant tau K18 P301L (four-repeat tau fragment), heparin-induced fibrillization, ThT fluorescence; series mostly up to 57.4 µM; activity, negative = inhibition: at the top concentration
# Procedure, shortened: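 Recombinant human tau K18 fragment […] carrying P301L, 15 uM unlabeled plus 0.24 uM Alexa 594-labeled, was fibrillized with 20 uM heparin in 100 mM sodium acetate pH 7 for 6 hr at 37 C; 30 uM ThT fluorescence read after 1 hr.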
# % is set by controls: 0 for no effect and ±100 for the full control effect; potency is the fitted concentration of half-maximal effect; tags give direction and shape of the fitted curve.
# UniProt P10636, sequence (P10636 whole entry, looked up): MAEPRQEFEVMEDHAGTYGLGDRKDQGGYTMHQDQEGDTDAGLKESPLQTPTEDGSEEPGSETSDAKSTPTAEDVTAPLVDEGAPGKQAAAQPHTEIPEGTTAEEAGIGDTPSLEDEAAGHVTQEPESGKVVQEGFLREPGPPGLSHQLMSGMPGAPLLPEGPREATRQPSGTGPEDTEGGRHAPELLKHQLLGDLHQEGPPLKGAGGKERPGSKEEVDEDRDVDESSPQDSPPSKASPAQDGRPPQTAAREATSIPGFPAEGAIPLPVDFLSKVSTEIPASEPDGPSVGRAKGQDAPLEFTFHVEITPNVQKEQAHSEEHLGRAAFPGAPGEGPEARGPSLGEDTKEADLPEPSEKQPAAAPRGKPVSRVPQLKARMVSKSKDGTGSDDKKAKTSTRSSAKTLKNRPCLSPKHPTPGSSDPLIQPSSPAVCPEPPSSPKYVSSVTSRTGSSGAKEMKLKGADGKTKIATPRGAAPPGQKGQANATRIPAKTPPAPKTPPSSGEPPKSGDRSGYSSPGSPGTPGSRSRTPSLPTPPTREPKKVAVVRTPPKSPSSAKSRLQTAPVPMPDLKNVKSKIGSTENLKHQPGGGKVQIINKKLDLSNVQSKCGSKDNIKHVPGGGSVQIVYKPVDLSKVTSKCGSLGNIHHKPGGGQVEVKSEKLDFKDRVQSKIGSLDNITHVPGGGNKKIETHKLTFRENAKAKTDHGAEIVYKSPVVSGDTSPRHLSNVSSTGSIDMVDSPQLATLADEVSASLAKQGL
Structure (SMILES),"activity, negative = inhibition",Potency
O=C(COC(=O)c1ccc([N+](=O)[O-])s1)NCc1ccc(F)cc1,inactive: -6.73%,–
CCCCC(=O)Nc1ccc(C(=O)Nc2ccc3c(c2)OCO3)cc1,–,"inconclusive: 7.94 µM [inhibitor, partial curve]"
COC(=O)CSc1nnc(-c2sc3cc(OC)ccc3c2Cl)n1C,–,"inconclusive: 2.82 µM [inhibitor, full curve]"
COCCn1c(C)cc(C(=O)CSc2cc(C)c3ccc(OC)cc3n2)c1C,–,"inconclusive: 17.8 µM [inhibitor, partial curve, poor fit]"
COc1ccc(Nc2nnc(SCc3cn4c(C)cccc4n3)s2)cc1,–,"inconclusive: 4.47 µM [inhibitor, partial curve]"
CCOc1ccc2c(c1)C(c1cccs1)=NNC(c1cccnc1)=N2,–,"inconclusive: 17.8 µM [inhibitor, single point]"
Cc1cc(Cl)cc(Cl)c1OCC(=O)NCc1ccco1,–,"inconclusive: 35.5 µM [inhibitor, single point]"
CCOc1ccc(N=C(/C(C(=O)C(=O)N2CCOCC2)=C(\O)c2ccccc2)c2ccccc2)cc1,–,"inconclusive: 17.8 µM [inhibitor, single point]"
CS(=O)(=O)N1CCN(c2ccc(NC(=O)c3ccc(-c4ccc(Cl)cc4)o3)cc2)CC1,–,"inconclusive: 0.891 µM [inhibitor, full curve]"
O=C(CN1CCN(c2ccc(F)cc2)CC1)N1CCC(Cc2ccccc2)CC1,–,"inconclusive: 39.8 µM [inhibitor, partial curve]"
Cc1nnc(Cl)c2nn(-c3ccccc3)c(C)c12,–,"inconclusive: 39.8 µM [inhibitor, single point]"
Cc1ccc(-c2cc(C(=O)Nc3nccs3)c3ccccc3n2)o1,–,"inconclusive: 14.1 µM [inhibitor, partial curve]"
CCCn1c(=C(C#N)C#N)s/c(=C2\C=Cc3ccccc3N2CC)c1=O,–,"inconclusive: 0.708 µM [inhibitor, full curve]"
O=Nc1c2nc3ccccc3n(O)c-2c2ccccc12,–,"inconclusive: 28.2 µM [inhibitor, partial curve]"
NC(=O)N/N=C(/CCCCCC/C(=N\NC(N)=O)c1ccccc1)c1ccccc1,–,"inconclusive: 10 µM [inhibitor, partial curve, poor fit]"
COc1cc(NC(=O)CCN2CCN(Cc3ccccc3)CC2)cc(OC)c1,inactive: -0.205%,–
Cc1ccc(NC(=O)CSc2nnc(-c3ccccc3Br)o2)cc1C,–,"inconclusive: 20 µM [inhibitor, partial curve]"
O=C(CSc1nnc(-c2ccncc2)n1-c1ccccc1)N1CCN(c2ccc(Cl)cc2)CC1,–,"inconclusive: 7.08 µM [inhibitor, full curve]"
CN(c1ccccc1)S(=O)(=O)c1nnc(NC(=O)C2CCCCC2)s1,–,active: 2.51 µM
CC[n+]1c(/C=C(\C)SC)sc2ccccc21,inactive: 1.37%,–
Cc1cc(Cl)ccc1Oc1ccccc1C(=O)CC#N,–,"inconclusive: 28.2 µM [inhibitor, partial curve]"
CC(C)(C)OC(=O)N1CCN(c2ccc(NC(=O)Cn3nnc(-c4ccccc4)n3)cc2)CC1,–,"inconclusive: 14.1 µM [inhibitor, partial curve]"
CCSc1ccccc1C(=O)Nc1ccc([N+](=O)[O-])cc1OC,–,"inconclusive: 20 µM [inhibitor, single point]"

Structure (SMILES),"activity, negative = inhibition",Potency
Cc1ccc(NC(=O)C(=O)NCCc2sc(-c3ccc(Cl)cc3)nc2C)cc1C,–,"inconclusive: 0.891 µM [inhibitor, partial curve]"
N#Cc1c(NC(=O)c2ccccc2Cl)n(Cc2ccccc2)c2nc3ccccc3nc12,–,active: 14.1 µM
COc1ccc(OC(=O)c2cccc([N+](=O)[O-])c2)c(C(=O)/C=C/c2cccs2)c1,–,"inconclusive: 11.2 µM [inhibitor, partial curve]"
COc1ccc(-n2ccnc2SCC(=O)Nc2nnc(C)s2)cc1,inactive: -2.7%,–
CN(C(=O)c1ccc2c(Cl)c3c(nc2c1)CCC3)c1ccccc1,inactive: -18%,–
NC(=O)C1CCN(c2ncnc3c2c(-c2ccccc2)cn3-c2ccccc2)CC1,–,"inconclusive: 31.6 µM [inhibitor, partial curve]"
NC(=S)Nc1cc(Cl)cc(Cl)c1,inactive: 4.16%,–
CCc1ccc(NC2=NCC(c3ccccc3)S2)cc1 (centres undefined),–,"inconclusive: 22.4 µM [inhibitor, partial curve, poor fit]"
CCC1CCCCN1Cc1ccc(OC)c(OC)c1 (centres undefined),inactive: -0.543%,–
CCOc1ccc(NC(=S)NC(=O)c2ccco2)cc1,–,"inconclusive: 1 µM [inhibitor, single point]"
Cc1ccccc1N(C)S(=O)(=O)c1nnc(NC(=O)c2ccccc2F)s1,–,"inconclusive: 12.6 µM [inhibitor, partial curve]"
O=S(=O)(Nc1ccc(N2CCOCC2)cc1)c1ccc(F)cc1,inactive: -13.3%,–
Cc1cc(C)cc(NC(=O)Cn2c(=O)n(-c3cc(C)cc(C)c3)c(=O)c3oc4ccccc4c32)c1,inactive: -6.12%,–
N#CC(C(=O)OCc1ccccc1)c1nc2ccccc2nc1N1CCOCC1 (centres undefined),–,"inconclusive: 15.8 µM [inhibitor, partial curve]"
CCOc1ccccc1NS(=O)(=O)c1ccc2c(c1)CC(C)N2C(=O)C1CCC1 (centres undefined),inactive: -10.5%,–
O=C(O)CCC(=O)CCC(=O)c1ccc(Cl)cc1,inactive: -6.93%,–
O=C(c1ccco1)N1CCN(C(=O)C(Cc2ccccc2)NS(=O)(=O)c2cccs2)CC1 (centres undefined),inactive: -20.1%,–
NS(=O)(=O)c1ccc(Nc2ccc([N+](=O)[O-])c3nonc23)cc1,–,active: 15.8 µM
c1ccc(-c2nc3nc4ccccc4nc3n2CC2CCCO2)cc1 (centres undefined),inactive: -7.92%,–
CCc1c(C)c(C#N)c2[nH]c3ccccc3n2c1=S,–,"inconclusive: 22.4 µM [inhibitor, partial curve]"
COc1ccc(NC(=O)c2ccc(COc3ccccc3Br)o2)cc1OC,–,"inconclusive: 17.8 µM [inhibitor, partial curve]"
Cc1cccc(C)c1Nc1nc2ccccc2o1,inactive: -11.7%,–
Cc1ccc(C(=O)NNC(=S)NC(=O)c2ccc(Cl)cc2Cl)cc1,–,"inconclusive: 8.91 µM [inhibitor, partial curve]"

Structure (SMILES),"activity, negative = inhibition",Potency
O=C(N=Nc1c(O)[nH]c2ccc(Br)cc12)c1cc(-c2cccs2)nc2ccccc12,–,"inconclusive: 11.2 µM [inhibitor, partial curve]"
COc1cccc(C(=O)N(Cc2cccnc2)c2nc3c(OC)ccc(C)c3s2)c1OC,–,"inconclusive: 12.6 µM [inhibitor, partial curve, poor fit]"
Cc1c(CCOC(=O)c2cc([N+](=O)[O-])cc([N+](=O)[O-])c2)sc[n+]1CC(=O)c1ccc(Br)cc1,–,"inconclusive: 28.2 µM [inhibitor, partial curve]"
COc1ccc(NCc2cc3cc4c(cc3n(CC(=O)Nc3ccc(F)cc3)c2=O)OCCO4)cc1,inactive: -6.64%,–
COc1ccccc1OCCSc1nc2ccc([N+](=O)[O-])cc2s1,–,"inconclusive: 7.94 µM [inhibitor, partial curve]"
CCC(=O)Nc1cnc(NC(=O)c2cccc(F)c2)cc1C,inactive: 3.54%,–
Cc1cc2cc(C(c3nnnn3Cc3ccco3)N3CCCCC3)c(=O)[nH]c2cc1C (centres undefined),–,"inconclusive: 22.4 µM [inhibitor, partial curve]"
COc1c(F)c(F)c(C(=O)Nc2ccc(NC(=O)Cc3ccccc3)cc2)c(F)c1F,inactive: -1.92%,–
COc1ccc(N2C(=O)C(Cl)=C(Nc3ccc(OC)cc3OC)C2=O)cc1,–,"inconclusive: 1.58 µM [inhibitor, full curve]"
c1cncc(-c2nc(NCc3ccco3)c3ccccc3n2)c1,–,"inconclusive: 31.6 µM [inhibitor, partial curve, poor fit]"
CCn1cc(SCC(=O)N2CCc3ccccc32)c2ccccc21,–,"inconclusive: 17.8 µM [inhibitor, partial curve]"
COc1ccc2oc(C(=O)c3ccccc3)c(NC(=O)CN3CCN(C)CC3)c2c1,–,"inconclusive: 15.8 µM [inhibitor, partial curve]"
COc1cc([N+](=O)[O-])cc(/C=N/NC(=O)c2cncc(Br)c2)c1O,–,active: 12.6 µM
Cc1ccc(OCCn2c(CCNC(=O)C3CCCCC3)nc3ccccc32)cc1,–,"inconclusive: 20 µM [inhibitor, single point]"
Cc1cc(C(F)(F)F)n2[nH]c(=O)c(N=Nc3ccccc3)c2n1,–,"inconclusive: 20 µM [inhibitor, partial curve]"
COc1ccc(-c2nnc(COc3ccc4ccccc4c3)o2)cc1OC,–,"inconclusive: 2.51 µM [inhibitor, full curve]"
C/C(=C\C(=O)c1ccc(C)cc1)Nc1cccc(O)c1,–,"inconclusive: 12.6 µM [inhibitor, partial curve]"
Cc1nnc2ccc(N3CCN(c4ccccn4)CC3)nn12,–,"inconclusive: 15.8 µM [inhibitor, partial curve]"
CCCc1nn(-c2ccccc2)c2c1C(c1cccs1)C(C#N)=C(N)O2 (centres undefined),–,"inconclusive: 17.8 µM [inhibitor, partial curve]"
COc1ccc(/C=C/C(=O)Nc2ccc3c(c2)CCC3)cc1OC,–,"inconclusive: 5.01 µM [inhibitor, partial curve]"
CCOC(=O)N1CCC(n2c(SCC(=O)NCCC3=CCCCC3)nc3ccccc3c2=O)CC1,–,"inconclusive: 17.8 µM [inhibitor, single point]"
Cc1ccc(C(=O)Nc2ccc(Cl)cc2C(F)(F)F)c(Cl)c1,–,"inconclusive: 14.1 µM [inhibitor, partial curve]"
c1ccc(-c2nnc3sc(-c4cc5ccccc5o4)nn23)cc1,–,"inconclusive: 17.8 µM [inhibitor, single point]"

# Reference: PubChem BioAssay AID1460 (National Center for Advancing Translational Sciences (NCATS), 2008)
